According to the supplement of paper PMC9174493:
Where a name gives a salt, the structure may show the parent alone. Some of the results follow. Single values of this set are uncertain. Values with irradiation are relative to irradiated vehicle.
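Also: viability correction based on the alamar blue assay, with concentrations leaving 10% survival or less dropped.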

What follows are compounds tested on A549-Dual (assay: NF-kB reporter (SEAP) activity, viability-corrected, relative to vehicle (fold change vs vehicle); higher = more activation of STING-IRF / NF-kB immune response reporter). Conditions: 0.1 µM; irradiation: 8 Gy/4 fr.
Work on `CCC(=O)OCC(=O)C1(OC(=O)CC)C(C)CC2C3CCC4=CC(=O)C=CC4(C)C3(Cl)C(O)CC21C` (stereo not given) [Beclomethasone dipropionate] yielded an NF-kB reporter of 0.617.
`CC(=O)Nc1ccc(OC(=O)c2ccccc2OC(C)=O)cc1` [Benorylate] showed an NF-kB reporter of 1.
Compound `Nc1ccccc1NC(=O)c1ccc(CNC(=O)OCc2cccnc2)cc1` [Entinostat (MS-275)] has an NF-kB reporter of 1.22.
`COc1cc(N2CCC(N3CCN(C)CC3)CC2)ccc1Nc1ncc(Cl)c(Nc2ccccc2P(C)(C)=O)n1` was tested, and the NF-kB reporter was 0.873.
`Cc1c(-c2ccc(-c3ccccc3F)cc2)nc2ccc(F)cc2c1C(=O)O` [Brequinar] gave an NF-kB reporter of 1.07.
Compound `CCC1/C=C(\C)CC(C)CC(OC)C2OC(O)(C(=O)C(=O)N3CCCCC3C(=O)OC(/C(C)=C/C3CCC(Cl)C(OC)C3)C(C)C(O)CC1=O)C(C)CC2OC` (stereo not given) [Pimecrolimus] has an NF-kB reporter of 1.13.
`COC(=O)/C=C/C(=O)OC` [Dimethyl Fumarate] was tested, and the NF-kB reporter was 0.605.
Work on `Cc1cc(Nc2ncc(Cl)c(Nc3ccccc3S(=O)(=O)C(C)C)n2)c(OC(C)C)cc1C1CCNCC1` [Ceritinib (LDK378)] yielded an NF-kB reporter of 0.936.
`Nc1nc(Cl)nc2c1ncn2C1CC(O)C(CO)O1` (stereo not given) [Cladribine] showed an NF-kB reporter of 0.909.
`CC12CCC(=O)C=C1CCC1C2C(O)CC2(C)C1CCC2(O)C(=O)CO` (stereo not given) [Hydrocortisone] showed an NF-kB reporter of 0.63.
`Cc1coc2c1C(=O)C(=O)c1c-2ccc2c(C)cccc12` [Tanshinone I] was tested, and the NF-kB reporter was 0.878.
Work on `Cn1cnc([N+](=O)[O-])c1Sc1ncnc2nc[nH]c12` [Azathioprine] yielded an NF-kB reporter of 0.956.
For `O=c1ccc2cc3ccoc3cc2o1` [Psoralen], the NF-kB reporter was 1.08.
`CCC(=O)NS(=O)(=O)c1ccc(-c2c(-c3ccccc3)noc2C)cc1` [Parecoxib] showed an NF-kB reporter of 1.28.
In the case of `COc1ccc(-c2ccc3cc(C(=O)O)ccc3c2)cc1C12CC3CC(CC(C3)C1)C2` [Adapalene], the NF-kB reporter is reported as 1.11.
`CCC(C(=O)O)c1ccc(N2Cc3ccccc3C2=O)cc1` (stereo not given) [Indobufen] was tested, and the NF-kB reporter was 1.12.
With `COC1CC2CCC(C)C(O)(O2)C(=O)C(=O)N2CCCCC2C(=O)OC(C(C)CC2CCC(O)C(OC)C2)CC(=O)C(C)/C=C(\C)C(O)C(OC)C(=O)C(C)CC(C)/C=C/C=C/C=C/1C` (stereo not given) [Rapamycin (Sirolimus)] the NF-kB reporter was 1.47.
Compound `COc1ccc(C2CNC(=O)C2)cc1OC1CCCC1` (stereo not given) [Rolipram] has an NF-kB reporter of 1.1.
With `Nc1nc(N)c2nc(-c3ccccc3)c(N)nc2n1` [Triamterene] the NF-kB reporter was 0.994.
`CN(C)CCN1C(=O)c2cccc3cc(N)cc(c23)C1=O` [Amonafide] was tested, and the NF-kB reporter was 1.3.
`CN1CCCC1CCOC(C)(c1ccccc1)c1ccc(Cl)cc1.O=C(O)/C=C/C(=O)O` (stereo not given) [Clemastine Fumarate] gave an NF-kB reporter of 1.14.
For `CC12C=CC(=O)C=C1CCC1C3CC(O)C(O)(C(=O)CO)C3(C)CC(O)C12F` (stereo not given) [Triamcinolone], the NF-kB reporter was 0.679.
With `CC1CC2C3CCC4=CC(=O)C=CC4(C)C3C(=O)CC2(C)C1(O)C(=O)CO` (stereo not given) [Meprednisone] the NF-kB reporter was 0.902.
Compound `CCS(=O)(=O)O.COC(=O)c1ccc2c(c1)NC(=O)/C2=C(\Nc1ccc(N(C)C(=O)CN2CCN(C)CC2)cc1)c1ccccc1` [Nintedanib Ethanesulfonate Salt] has an NF-kB reporter of 1.13.
Compound `CCCCCCCCCCCCCCCCCCOP(=O)([O-])OC1CC[N+](C)(C)CC1` [Perifosine (KRX-0401)] has an NF-kB reporter of 0.946.
`CCC1(O)CC2CN(CCc3c([nH]c4ccccc34)C(C(=O)OC)(c3cc4c(cc3OC)N(C=O)C3C(O)(C(=O)OC)C(OC(C)=O)C5(CC)C=CCN6CCC43C65)C2)C1` (stereo not given) [Vincristine] gave an NF-kB reporter of 1.06.
`Cl.Nc1ccn(C2OC(CO)C(O)C2O)c(=O)n1` (stereo not given) [Cytarabine hydrochloride] showed an NF-kB reporter of 0.93.
With `CC(=O)OC(C)C(C)C(=O)OCC12C3CC4(C)C(=CCC5C6(C)CCC(OC7OC(C(=O)[O][Na])C(OC8OC(CO)C(O)C(O)C8O)C(O)C7OC7OCC(O)C(O)C7O)C(C)(CO)C6CCC54C)C1CC(C)(C)C(O3)C2O` (stereo not given) [Sodium Aescinate] the NF-kB reporter was 1.47.
With `CCC(=O)OC1(C(=O)SCF)C(C)CC2C3CC(F)C4=CC(=O)C=CC4(C)C3(F)C(O)CC21C` (stereo not given) [Fluticasone propionate] the NF-kB reporter was 0.538.
Compound `CCCCC1(COC(=O)CCC(=O)O)C(=O)N(c2ccccc2)N(c2ccccc2)C1=O` [Suxibuzone] has an NF-kB reporter of 1.25.
For `CS(=O)(=O)Nc1cc2occ(NC=O)c(=O)c2cc1Oc1ccccc1` [Iguratimod], the NF-kB reporter was 1.09.
`COc1cc2nccc(Oc3ccc(NC(=O)Nc4cc(C)on4)c(Cl)c3)c2cc1OC` [Tivozanib (AV-951)] showed an NF-kB reporter of 0.786.
`Cc1ccc(S(=O)(=O)O)cc1.NC(=O)c1cccc2cn(-c3ccc(C4CCCNC4)cc3)nc12` (stereo not given) [Niraparib (MK-4827) tosylate] gave an NF-kB reporter of 1.16.
`CC(C)OC(=O)CCC/C=C\CC1C(O)CC(O)C1CCC(O)CCc1ccccc1` (stereo not given) [Latanoprost] was tested, and the NF-kB reporter was 0.671.
`O=c1[nH]cc(F)c(=O)[nH]1` [Fluorouracil (5-Fluoracil, 5-FU)] was tested, and the NF-kB reporter was 1.19.
`CC1(C(=O)O)CCC2(C)CCC3(C)C(=CC(=O)C4C5(C)CCC(OC6OC(C(=O)O)C(O)C(O)C6OC6OC(C(=O)O)C(O)C(O)C6O)C(C)(C)C5CCC43C)C2C1.N.N` (stereo not given) [Diammonium Glycyrrhizinate] gave an NF-kB reporter of 1.2.
`CC1(C)CCC(CN2CCN(c3ccc(C(=O)NS(=O)(=O)c4ccc(NCC5CCOCC5)c([N+](=O)[O-])c4)c(Oc4cnc5[nH]ccc5c4)c3)CC2)=C(c2ccc(Cl)cc2)C1` [Venetoclax (ABT-199, GDC-0199)] was tested, and the NF-kB reporter was 1.02.
`CCN(CC)Cc1cc(Nc2ccnc3cc(Cl)ccc23)ccc1O.Cl.Cl` [Amodiaquine hydrochloride] was tested, and the NF-kB reporter was 1.04.
`CCN(C(=O)c1c(O)c2c(Cl)cccc2n(C)c1=O)c1ccccc1` [Laquinimod] was tested, and the NF-kB reporter was 1.16.
For `O=C(c1ccc(OCCN2CCCCC2)cc1)c1c(-c2ccc(O)cc2)sc2cc(O)ccc12` [Raloxifene], the NF-kB reporter was 0.912.
